# Results published in the supplement of paper PMC10037445.
# In all, about 2,900 compounds were measured (“NF-kB SEAP reporter activity, fold change vs agonist alone”: median about 0.99, highest 2% from about 2.6 on). This is one part of the list.
# Assays:
# [1] = tested on: RAW-Dual; assay: NF-kB SEAP reporter activity, fold change vs agonist alone; cytotoxicity flag (confluency mask): not cytotoxic; higher = enhanced NF-kB activity
# How it was run: (§1)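 Supernatant from RAW-Dual macrophages was read after 20 hours for IRF by QuantiLuc luminescence and for NF-κB by QuantiBlue absorbance at 620 nm. The cells (50,000 cells/well in DMEM, 384-well plates, 37 °C, 5% CO2) had received 50 nL of library stock by pin tool and, 1 h later, a PRR agonist. Reporter activity is expressed relative to agonist-alone wells as fold change, and wells were flagged cytotoxic if IncuCyte confluency was under 70% of agonist controls in both mask sets.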
# [2] = tested on: RAW-Dual; assay: NF-kB SEAP reporter activity, fold change vs agonist alone; higher = enhanced NF-kB activity; conditions: library stock concentration (final ~1000-fold dilution): 10 mM
# How it was run: as §1
# [3] = tested on: RAW-Dual; assay: NF-kB SEAP reporter activity, fold change vs agonist alone; cytotoxicity flag (confluency mask): cytotoxic (confluency <70% of control); higher = enhanced NF-kB activity
# How it was run: as §1
# [4] = agonist: ODN 1826 (TLR9) 0.5 ug/mL
# [5] = agonist: Pam2CSK4 (TLR2/6) 0.1 ug/mL
# [6] = agonist: Pam3CSK4 (TLR2/1) 0.1 ug/mL
# [7] = cytotoxicity flag (confluency mask): not cytotoxic, agonist: Imiquimod (TLR7) […]
# [8] = cytotoxicity flag (confluency mask): not cytotoxic, agonist: MPLA (TLR4) […]
# [9] = cytotoxicity flag (confluency mask): cytotoxic (confluency <70% of control), agonist: MPLA (TLR4) […]
compound,measurement,setting,value
COC1C(OC(=O)/C=C/C=C/C=C/C=C/C(=O)O)CCC2(CO2)C1C1(C)OC1CC=C(C)C (stereo unspecified) (library stock concentration (final ~1000-fold dilution): 10 mM),NF-kB SEAP reporter activity,[1]; agonist: LPS (TLR4) 0.1 ug/mL,1.03
same,NF-kB SEAP reporter activity,[1]; [4],0.846
same,NF-kB SEAP reporter activity,[1]; [5],0.819
same,NF-kB SEAP reporter activity,[1]; [6],0.688
COC1C(OC(=O)/C=C/C=C/C=C/C=C/C(=O)O)CCC2(CO2)C1C1(C)OC1CC=C(C)C (stereo unspecified),NF-kB SEAP reporter activity,[2]; [7],0.99
same,NF-kB SEAP reporter activity,[2]; [8],1.11
C[C@H]1O[C@@H](O[C@H]2CC[C@@]3(C)[C@@H](CC[C@]4(C)[C@@H]3C=C[C@]35OC[C@@]6(CCC(C)(C)C[C@H]63)[C@H](O)C[C@]54C)[C@]2(C)CO)[C@H](O)[C@@H](O[C@@H]2O[C@H](CO)[C@@H](O)[C@H](O)[C@H]2O)[C@H]1O (library stock concentration (final ~1000-fold dilution): 10 mM),NF-kB SEAP reporter activity,[3]; agonist: LPS (TLR4) 0.1 ug/mL,0.316
same,NF-kB SEAP reporter activity,[3]; [4],0.274
same,NF-kB SEAP reporter activity,[3]; [5],0.104
same,NF-kB SEAP reporter activity,[3]; [6],0.197
C[C@H]1O[C@@H](O[C@H]2CC[C@@]3(C)[C@@H](CC[C@]4(C)[C@@H]3C=C[C@]35OC[C@@]6(CCC(C)(C)C[C@H]63)[C@H](O)C[C@]54C)[C@]2(C)CO)[C@H](O)[C@@H](O[C@@H]2O[C@H](CO)[C@@H](O)[C@H](O)[C@H]2O)[C@H]1O,NF-kB SEAP reporter activity,"[2]; cytotoxicity flag (confluency mask): cytotoxic (confluency <70% of control), agonist: Imiquimod (TLR7) […]",0.222
same,NF-kB SEAP reporter activity,[2]; [9],0.421
CN(C)c1ccc2c(c1)Sc1cc(N(C)C)ccc1N2,NF-kB SEAP reporter activity,[2]; [7],1.44
same,NF-kB SEAP reporter activity,[2]; [8],2.01
CN(C)c1ccc2c(c1)Sc1cc(N(C)C)ccc1N2 (library stock concentration (final ~1000-fold dilution): 10 mM),NF-kB SEAP reporter activity,[1]; agonist: LPS (TLR4) 0.1 ug/mL,2.18
same,NF-kB SEAP reporter activity,[1]; [4],0.242
same,NF-kB SEAP reporter activity,[1]; [5],0.844
same,NF-kB SEAP reporter activity,[1]; [6],1.42
CCCc1nc(C(C)(C)O)c(C(=O)O)n1Cc1ccc(-c2ccccc2-c2nnn[nH]2)cc1 (library stock concentration (final ~1000-fold dilution): 10 mM),NF-kB SEAP reporter activity,[1]; agonist: LPS (TLR4) 0.1 ug/mL,0.868
same,NF-kB SEAP reporter activity,[1]; [4],1.02
same,NF-kB SEAP reporter activity,[1]; [5],1.13
same,NF-kB SEAP reporter activity,[1]; [6],1.3
CCCc1nc(C(C)(C)O)c(C(=O)O)n1Cc1ccc(-c2ccccc2-c2nnn[nH]2)cc1,NF-kB SEAP reporter activity,[2]; [7],0.948
same,NF-kB SEAP reporter activity,[2]; [8],1.1
CC(C)(C)c1cc(O)ccc1O (library stock concentration (final ~1000-fold dilution): 10 mM),NF-kB SEAP reporter activity,[1]; agonist: LPS (TLR4) 0.1 ug/mL,0.991
same,NF-kB SEAP reporter activity,[1]; [4],0.851
same,NF-kB SEAP reporter activity,[1]; [5],0.556
same,NF-kB SEAP reporter activity,[1]; [6],0.711
CC(C)(C)c1cc(O)ccc1O,NF-kB SEAP reporter activity,[2]; [7],0.56
same,NF-kB SEAP reporter activity,[2]; [8],0.821
Nc1c(Br)cc(Br)cc1CNC1CCC(O)CC1 (stereo unspecified) (library stock concentration (final ~1000-fold dilution): 10 mM),NF-kB SEAP reporter activity,[1]; agonist: LPS (TLR4) 0.1 ug/mL,1.24
same,NF-kB SEAP reporter activity,[1]; [4],0.806
same,NF-kB SEAP reporter activity,[1]; [5],0.964
same,NF-kB SEAP reporter activity,[1]; [6],0.865
Nc1c(Br)cc(Br)cc1CNC1CCC(O)CC1 (stereo unspecified),NF-kB SEAP reporter activity,[2]; [7],0.984
same,NF-kB SEAP reporter activity,[2]; [8],0.994
CS(=O)(=O)Nc1ccc([N+](=O)[O-])cc1OC1CCCCC1,NF-kB SEAP reporter activity,[2]; [7],0.998
same,NF-kB SEAP reporter activity,[2]; [8],1.12
CS(=O)(=O)Nc1ccc([N+](=O)[O-])cc1OC1CCCCC1 (library stock concentration (final ~1000-fold dilution): 10 mM),NF-kB SEAP reporter activity,[1]; agonist: LPS (TLR4) 0.1 ug/mL,1
same,NF-kB SEAP reporter activity,[1]; [4],1.08
same,NF-kB SEAP reporter activity,[1]; [5],0.959
same,NF-kB SEAP reporter activity,[1]; [6],0.803
N#Cc1ccc(Oc2ccc3c(c2)COB3O)cc1,NF-kB SEAP reporter activity,[2]; [8],1.4
N#Cc1ccc(Oc2ccc3c(c2)COB3O)cc1 (library stock concentration (final ~1000-fold dilution): 10 mM),NF-kB SEAP reporter activity,[1]; agonist: LPS (TLR4) 0.1 ug/mL,1.68
same,NF-kB SEAP reporter activity,[1]; [4],1.44
same,NF-kB SEAP reporter activity,[1]; [5],1.31
same,NF-kB SEAP reporter activity,[1]; [6],1.05
CC(N)C12CC3CC(CC(C3)C1)C2 (stereo unspecified),NF-kB SEAP reporter activity,[2]; [7],0.956
same,NF-kB SEAP reporter activity,[2]; [8],1.32
CC(N)C12CC3CC(CC(C3)C1)C2 (stereo unspecified) (library stock concentration (final ~1000-fold dilution): 10 mM),NF-kB SEAP reporter activity,[1]; agonist: LPS (TLR4) 0.1 ug/mL,1.16
same,NF-kB SEAP reporter activity,[1]; [4],0.839
same,NF-kB SEAP reporter activity,[1]; [5],1.01
same,NF-kB SEAP reporter activity,[1]; [6],1.05
CCCCCCOC(=O)N=C(N)c1ccc(NCc2nc3cc(C(=O)N(CCC(=O)OCC)c4ccccn4)ccc3n2C)cc1,NF-kB SEAP reporter activity,[2]; [7],1.55
same,NF-kB SEAP reporter activity,[2]; [8],1.47
CCCCCCOC(=O)N=C(N)c1ccc(NCc2nc3cc(C(=O)N(CCC(=O)OCC)c4ccccn4)ccc3n2C)cc1 (library stock concentration (final ~1000-fold dilution): 10 mM),NF-kB SEAP reporter activity,[1]; agonist: LPS (TLR4) 0.1 ug/mL,1.86
same,NF-kB SEAP reporter activity,[1]; [4],1.02
same,NF-kB SEAP reporter activity,[1]; [5],0.968
same,NF-kB SEAP reporter activity,[1]; [6],1.37
Cl.NC(CO)C(=O)NNCc1ccc(O)c(O)c1O (stereo unspecified),NF-kB SEAP reporter activity,[2]; [7],0.889
same,NF-kB SEAP reporter activity,[2]; [8],0.995
Cl.NC(CO)C(=O)NNCc1ccc(O)c(O)c1O (stereo unspecified) (library stock concentration (final ~1000-fold dilution): 10 mM),NF-kB SEAP reporter activity,[1]; agonist: LPS (TLR4) 0.1 ug/mL,1.07
same,NF-kB SEAP reporter activity,[1]; [4],1.04
same,NF-kB SEAP reporter activity,[1]; [5],0.944
same,NF-kB SEAP reporter activity,[1]; [6],1.08
O=C(NCC(=O)N1CCCC1)Nc1ccc2cnccc2c1,NF-kB SEAP reporter activity,[2]; [7],0.932
same,NF-kB SEAP reporter activity,[2]; [8],0.947
O=C(NCC(=O)N1CCCC1)Nc1ccc2cnccc2c1 (library stock concentration (final ~1000-fold dilution): 10 mM),NF-kB SEAP reporter activity,[1]; agonist: LPS (TLR4) 0.1 ug/mL,0.941
same,NF-kB SEAP reporter activity,[1]; [4],0.914
same,NF-kB SEAP reporter activity,[1]; [5],1.13
same,NF-kB SEAP reporter activity,[1]; [6],0.761
CC1CCC2C(C)(C)C3CC12CCC3(C)O (stereo unspecified),NF-kB SEAP reporter activity,[2]; [9],1.15
CC1CCC2C(C)(C)C3CC12CCC3(C)O (stereo unspecified) (library stock concentration (final ~1000-fold dilution): 10 mM),NF-kB SEAP reporter activity,[3]; agonist: LPS (TLR4) 0.1 ug/mL,1.11
same,NF-kB SEAP reporter activity,[3]; [4],0.855
same,NF-kB SEAP reporter activity,[3]; [5],1.67
same,NF-kB SEAP reporter activity,[3]; [6],1.1
